In the RNAGym collection of RNA variant scans (doi:10.1093/nar/gkz1192):
Read counts are not given, so values of variants with three or more changes are uncertain.

B1: CPEB3 Ribozyme (parent)
chain: UAACAGGGGGCCACAGCAGAAGCGUUCACGUCGCAGCCCCUGUCAGAUUCUGGUGAAUCUGCGAAUUCUGCUGUAUAUCUC

Variants of: B1
Experiment: self-cleavage, relative activity (ratio to wild type); higher = more cleavage; in vitro, sequencing
In short: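 After error-prone PCR and barcoding, CPEB3 ribozyme mutant libraries were transcribed with T7 RNA polymerase at 37°C for 5 hours, then given 15 min with DNase I before an EDTA stop, and they cleaved during both steps. Reverse transcription with template switching preceded Illumina sequencing. Relative activity divides a variant's cleaved/total read fraction by the unmutated ribozyme's. At least 5 reads were required per variant, and three batches were averaged.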

| Variant | self-cleavage |
| --- | --- |
| A20G A35U A57U U72C | 0.14 |
| A20G C40U U78C | 0.36 |
| A20G A47U C68U U76C | 0.13 |
| A20G A47G C62U | 0.2 |
| A20G C34U U43C U58C C81A | 0.23 |
| A20G G24C A35U C40U U43C | 0.09 |
| A20G C38G U72C | 0.18 |
| A20G A35G G46A | 0.73 |
| A20G G33A U49C C59A | 0.07 |
| A20G A35U U54A G63U U78A | 0.39 |
| A20G A45G U74A | 0.67 |
| A20G U25A A64U | 0.19 |
| A20G G33A A35G U72C U80C | 0.1 |
| A20G A35U U49C | 0.18 |
| A20G A64G U72C | 0.59 |
| A20G C32U C39G U51A | 0.15 |
| A20G C29U C40U A64U U67C | 0.11 |
| A20G G33A U48C A56U U58C G70A | 0.03 |
| A20G C29U U43C U69C | 0.08 |
| A20G G24A A28G | 0.12 |
| A20G G42U A45G A47G | 0 |
| A20G C29U U54C A65G | 0.26 |
| A20G A45G U58A U67C U72C | 0.14 |
| A20G G52A U54A G63A | 0.78 |

| Variant | self-cleavage |
| --- | --- |
| A20G G22U G61C | 0.21 |
| A20G A35G G36U U60G A64G | 0.09 |
| A20G A64G U78A | 0.88 |
| A20G G24C A56U | 0.2 |
| A20G C38U U66C | 0.15 |
| A20G A56G A65C U72A | 0.14 |
| A20G C29U A45G U72A A77G U78A | 0.13 |
| A20G G30A U66C | 0.11 |
| A20G G24C U41A U66C U67C | 0.11 |
| A20G U25A U51G | 0.1 |
| A20G A45C U69C | 0.16 |
| A20G A35G G52A | 1.23 |
| A20G G42C G63A | 0.15 |
| A20G A35G U41A U51C U58A A77G | 0.2 |
| A20G U25A U43A U60A | 0.08 |
| A20G U25A G53C | 0.25 |
| A20G A57G U69C A77U | 0.53 |
| A20G U25A U26C U51A U58A U72A | 0.15 |
| A20G A47U U58C | 0.42 |
| A20G C37A A57G U58C | 0.22 |
| A20G C38A A45G U78C | 0.09 |
| A20G C29A A47G G63A U72A | 0.14 |
| A20G G55U U60C U72C | 0.18 |
| A20G C29U A47U G61A U74A A75G | 0.1 |

| Variant | self-cleavage |
| --- | --- |
| A20G A35G U48C | 0.85 |
| A20G G46U A47G U60C U67C | 0.08 |
| A20G C37A A56G C59U A65G U76A | 0.03 |
| A20G A57U U80A | 0.23 |
| A20G A56G U60A U67C U78C | 0.13 |
| A20G A64G U80A | 0.44 |
| A20G A47U A57G U58C A64G U78C | 0.05 |
| A20G A45G C50A U67C U72C A77G | 0.5 |
| A20G U25A C29G A47U A57G A65G U72C | 0.05 |
| A20G G24A U41A U60C U76C | 0.13 |
| A20G A57G U76A | 0.92 |
| A20G A47G U58A A65G | 0.23 |
| A20G C39U U49C U60C | 0.08 |
| A20G C23U C37U | 0.3 |
| A20G C32U A75G | 0.1 |
| A20G C37A U49C G61U | 0.16 |
| A20G A47G A64U C68U | 0.15 |
| A20G U25A G33A U58C A77G | 0.03 |
| A20G C27A U41C U43A U80C | 0.2 |
| A20G C29A A45G A57G | 0.26 |
| A20G C62U U67A | 0.21 |
| A20G G24A A28G U31C U41C | 0.27 |
| A20G A35G U72G | 1.15 |
| A20G C62G G70U | 0.35 |

| Variant | self-cleavage |
| --- | --- |
| A20G A75G U76G | 0.38 |
| A20G A45G G70C | 0.15 |
| A20G G33A A47G U48C U74C | 0.14 |
| A20G A35G U43C U49C U80C | 0.43 |
| A20G C71U U80C | 0.98 |
| A20G A57G A65G | 0.11 |
| A20G A57G A77G | 0.8 |
| A20G G24A U25C G42A A56G G61C A64U | 0.19 |
| A20G A35U U51A U72G | 0.24 |
| A20G A64G U76C | 0.32 |
| A20G G24A U49C C62U U72A | 0.08 |
| A20G C34G U51A U58A U66C C68U | 0.09 |
| A20G A64G U66C U69C A75U U78A | 0.09 |
| A20G C32A A64G | 0.26 |
| A20G C27U U31C U51C | 0.02 |
| A20G U25A U41C U43C | 0.32 |
| A20G G30U U41G A47G U76C | 0.21 |
| A20G C50A U54G | 0.25 |
| A20G G36A U78C | 0.27 |
| A20G A45G A77G | 0.7 |
| A20G C32A U58A A77G C79A | 0.05 |
| A20G C34U U43C U58C | 0.14 |
| A20G C38U U41C A57C U58C U69A | 0.07 |
| A20G C34U U41C A77G | 0.09 |

| Variant | self-cleavage |
| --- | --- |
| A20G C40A A45U | 0.22 |
| A20G U25A U41C A45G | 0.06 |
| A20G C50A U51C G52U U60C U69A | 0.3 |
| A20G C37A U54C | 0.09 |
| A20G A45G U76C | 0.42 |
| A20G C39A A56U | 0.08 |
| A20G G30C C39U U41A C62U | 0.1 |
| A20G A47G U51C U72A | 0.34 |
| A20G A47G A57C U67C | 0.27 |
| A20G C27U U51A C59U | 0.06 |
| A20G A35U C38U U67C | 0.19 |
| A20G C37G A65G A77G | 0.19 |
| A20G G24C G33A | 0.18 |
| A20G C27U U54A U60G U69C | 0.19 |
| A20G A65G U66C | 0.21 |
| A20G G42A U76C | 0.29 |
| A20G C29U U41C | 0.21 |
| A20G A35G U60C C62A U69C | 0.26 |
| A20G C27A G33A U69C | 0.14 |
| A20G G24C U31C A57U U78C | 0.08 |
| A20G A35U A45U U51C | 0.19 |
| A20G C29U A35G U76A | 1.16 |
| A20G C27U A77U | 0.28 |
| A20G A56G U72C U80C | 0.6 |

| Variant | self-cleavage |
| --- | --- |
| A20G C29U G30U U51A U58A U69A U78C | 0.06 |
| A20G A45G U48C | 0.23 |
| A20G C34G A45U | 0.17 |
| A20G G24A C44U | 0.09 |
| A20G U25C A28G U49C U67C U76A U78G | 0 |
| A20G U25A U69A | 0.45 |
| A20G G52A A57G | 0.63 |
| A20G A56U U66C G73A A77G | 0.28 |
| A20G G30A U72C | 0.08 |
| A20G U25A U51G A64G | 0.06 |
| A20G G22U C40A | 0.31 |
| A20G C39G U51A A64G | 0.15 |
| A20G G52A U58C | 0.25 |
| A20G C34U G42U U48C | 0.11 |
| A20G C29U A56G | 0.46 |
| A20G C29U G30U U51A U69A U78C | 0.15 |
| A20G C27A A56G C59U U60A | 0.09 |
| A20G A56U U66C | 0.42 |
| A20G C23U U31A U41A U80C | 0.3 |
| A20G G33U U48C | 0.09 |
| A20G G46U U51C | 0.21 |
| A20G A47G U60C | 0.19 |
| A20G U25A G30C A35G U80C | 0.37 |
| A20G A35G U69C | 1.25 |

| Variant | self-cleavage |
| --- | --- |
| A20G G70C U72C | 0.28 |
| A20G A35U U41C | 0.42 |
| A20G A35G U43C C59A | 0.41 |
| A20G C32U U67C U78C | 0.26 |
| A20G A64G U67C | 0.73 |
| A20G A45G G61U | 0.38 |
| A20G A45G U54C U60A A64U U69A | 0.07 |
| A20G C40U U58C A77U U78C | 0.08 |
| A20G A56G A65G | 0.28 |
| A20G A35G U60A U69C | 0.48 |
| A20G G42A A47G A57G | 0.08 |
| A20G G33A U43C U49C | 0.09 |
| A20G C39A U78C | 0.27 |
| A20G C32A A77G U80A | 0.08 |
| A20G A35G U41A U49A U67C | 0.12 |
| A20G C38U A45G U69C C81A | 0.2 |
| A20G A65G U69C | 0.28 |
| A20G C27U U43A A45G A64G | 0.23 |
| A20G C37U A47G U58C U69C U72C | 0.09 |
| A20G A56G A64U U80C | 0.27 |
| A20G G55A C62G | 0.13 |
| A20G A56U G61A A75G U76A | 0.11 |
| A20G A47U U49A A57G | 0.21 |
